In patent publication US6949753B2, “Device and method for photoactivation” (Cerus Corporation, priority 1992, dated 2005):

Key:
[1] = system: Yersinia enterocolitica, wild type, serotype 3, biotype 4; experiment: Inactivation of Yersinia enterocolitica in human platelet concentrate by 8-MOP plus UVA irradiation, colony counts on BHI agar; format: cell-based; details: irr. time 10 min UVA; for log/ml (bacterial titer after treatment): platelet concentrate, 25° C., untreated control 9.1
Excerpt: This organism is found in blood products.

[2] = system: GMP140 on human platelets; experiment: Platelet activation, GMP140 expression by CD62 antibody and flow cytometry (FACSCAN); format: cell-based; details: PMA 10−^7 M positive control
Excerpt: When platelets become activated, an alpha granule membrane glycoprotein called GMP140 becomes exposed on the platelet surface. Less than (5%) of fresh, normal unstimulated platelets express detectable GMP 140 levels by flow cytometry. See generally M. J. Metzelaar, Studies on the Expression of Activation-Markers on Human Platelets (Thesis 1991).
To measure GMP140, a small aliquot of platelet rich plasma is placed in HEPES buffer containing a GMP140-binding antibody or control mouse IgG. CD62 is a commercially available monoclonal antibody which binds to GMP 140 (available from Sanbio, Uden, the Netherlands; Caltag Labs, So. San Francisco, Calif., and Becton Dickinson, Mountain View, Calif.). After a fifteen minute incubation, Goat Anti-Mouse IgG conjugated to FITC is added to the tube in saturating amounts. Finally, the cells are diluted in isotonic saline, fixed with paraformaldehyde and analyzed on a FACSCAN™ (Becton Dickinson, Mountain View, Calif.). The positive control is made by adding Phorbol Myristate Acetate (PMA) to the test system at a final concentration of 10−^7 M.
In this example, CD62 was employed to measure the impact, if any, of irradiation alone on platelet activation. The antibody was stored in small aliquots (0.01 mg/ml) at −40° C. prior to use. A mouse IgG control (0.05 mg/ml) (Becton Dickinson, Mountain View, Calif. #9040) 5× concentrated was employed. At time of use, this was diluted 1:5 in HEPES buffer. The secondary antibody was goat Anti-Mouse IgG conjugated to FITC (TAGO, Burlingame, Calif. #3506). This was stored in small aliquots at −20° C. Phorbol Myristate Acetate (PMA) (Sigma, St. Louis, Mo.) was stored at −40° C. At time of use, this was dissolved in DMSO (working concentration was 1.62×10−^5 M).
16% Paraformaldehyde (PFA) (Sigma, St. Louis, Mo.) was prepared by adding 16 grams paraformaldehyde to 100 ml de-ionized water. This was heated to 70° C., whereupon 3 M NaOH was added dropwise until the solution was clear. The solution was cooled and the pH was adjusted to 7.4 with 1 N HCl. This was filtered and stored. A commercially available isotonic buffer was used: Hematall Isotonic Diluent (Fisher #CS 606-20).
Following irradiation, the platelets were stored for 5 days. At specific time points, aliquots were taken and processed.
Processing involved adding an aliquot (e.g. 5 microliters) of platelet concentrate to each microcentrifuge tube containing the antibody and appropriate reagents and this was mixed very gently by vortex. The samples were incubated for 15 minutes at room temperature.
The Goat anti-Mouse IgG-FITC (diluted 1:10 in HEPES buffer) was added (5 microliters) to each tube and the solution was mixed by gentle vortex. The samples were incubated for an additional 15 minutes at room temperature.
Isoton II was added (1 ml) to each tube and mixed gently with a polypropylene disposable pipette. 8% PFA in HEPES (150 microliters) was added to each diluted sample to final 1%. The platelets were analyzed on the FACSCAN™.
Shorter Irradiation Times.

Structure (SMILES)	-titer (change of log titer versus untreated control) ([1]; 8-MOP 3 ug/ml)	log/ml (bacterial titer after treatment) ([1]; 8-MOP 3 ug/ml)	-titer (change of log titer versus untreated control) ([1]; 8-MOP 10 ug/ml)	log/ml (bacterial titer after treatment) ([1]; 8-MOP 10 ug/ml)	-titer (change of log titer versus untreated control) ([1]; 8-MOP 30 ug/ml)	log/ml (bacterial titer after treatment) ([1]; 8-MOP 30 ug/ml)	Activation, PMA Activated ([2]; Day 3, Control (no irradiation))	Activation, PMA Activated ([2]; Day 3, UV 5′)	Activation, PMA Activated ([2]; Day 3, UV 10′)	Activation, PMA Activated ([2]; Day 5, Control (no irradiation))	Activation, PMA Activated ([2]; Day 5, UV 5′)	Activation, PMA Activated ([2]; Day 5, UV 10′)
COc1c2occc2cc2ccc(=O)oc12 [8-MOP, 8-methoxypsoralen]	−5.7	3.4 log/ml	>−9.1	<0 log/ml	>−9.1	<0 log/ml	–	–	–	–	–	–
CCCCCCCCCCCCCC(=O)O[C@@H]1[C@@H](C)[C@@]2(O)[C@@H](C=C(CO)C[C@]3(O)C(=O)C(C)=C[C@@H]23)[C@@H]2C(C)(C)[C@]12OC(C)=O [PMA, Phorbol Myristate Acetate]	–	–	–	–	–	–	85%	87%	84%	89%	86%	79%
